Consider 61 compounds from PubChem BioAssay AID1963576 (National Center for Advancing Translational Sciences (NCATS), 2024).

Molecules are shown by their SMILES. In all, about 46,000 compounds went through this assay and about 60 (0.1%) were called active. Not shown: some 3% with an inconclusive outcome. Calls follow the shape of the dose curve; as a rule, active = well fitted inhibition curve with a large enough effect; inconclusive = small, poorly fitted or top-dose-only effect; inactive = no such curve, though single readings can be large or run the other way. The list shows a part of the results.

This assay in a line: Primary qHTS assay for Inhibitors of ovarian cancer metastasis using an organotypic tumor microenvironment (TME) model. Also: nearly all actives have a fitted effect of over 65% in size.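 As to activity change, negative = inhibition: plate controls were DMSO wells for no effect and tomatine positive control wells for full effect.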 Particulars: SKOV3ip1-GFP adhesion/invasion on 3D omental model, fluorescence; series mostly up to 45.8 µM; activity change, negative = inhibition: at the top concentration. A digest of the protocol:
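A 3D layer of primary human omental fibroblasts, mesothelial cells, fibronectin and collagen I, grown 48 hr, received SKOV3ip1-GFP cells in serum-free medium plus compounds at 0.36-46 umol/L. After 2 hr RT and 16 hr 37 C, fixed adherent GFP cells were counted; normalized to DMSO and tomatine.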
On to `Cc1ccc(CNS(=O)(=O)c2ccc3c(c2)CCN3S(C)(=O)=O)cc1`, for which the call was inactive.
As to `COCCNC(=O)CCCn1c(=O)c2cc(OC)c(OC)cc2n(CC(=O)Nc2ccc(F)cc2)c1=O`, the “activity change, negative = inhibition” value is inactive: -2.27%.
With `O=C(COc1ccccc1Cl)Nc1ccc2oc(-c3ccccc3F)nc2c1`, the compound was classed as inactive.
Consider `CCCCOC(=O)c1ccc(NC(=O)c2cc3c(=O)n4cccc(C)c4nc3n2C)cc1`, for which the “activity change, negative = inhibition” value is inactive: 2.92%.
On the same count and under the same terms, in the case of `Cc1nn2c(=O)cc(COC(=O)c3ccc(NC(=O)C4CCCCC4)cc3)nc2s1` it was inactive: -15.7%.
Regarding `Cc1ccc(NC(=O)Cn2c(=O)n(CCCCC(=O)NCCc3ccccc3)c(=O)c3ccccc32)c(C)c1`, the result was inactive.
In the case of `O=C(Nc1ccc(F)cc1F)c1cc(-c2ccccc2O)no1`, the “activity change, negative = inhibition” value is inactive: 0.574%.
With `COc1cc(NC(=O)Cn2nc(C(F)(F)F)c3c2CCCC3)c(OC)cc1Cl`, the “activity change, negative = inhibition” value was inactive: -6.16%.
Still for that read-out and setting: in the case of `CCOc1ccc(CNC(=O)c2ccc(-c3nc(CS(=O)(=O)c4ccccc4)c(C)o3)cc2)cc1` it was inactive: -25.4%; in that of `O=C(CSc1nc(=O)[nH]c2c1CCCC2)Nc1ccccc1C(F)(F)F`, inactive: -0.644%; in that of `CCOC(=O)C1CCN(CCC(=O)Nc2ccc(Br)c(C)c2)CC1`, inactive: 9.4%.
`Cc1ccc(NC(=O)C(NS(=O)(=O)c2ccc3c(c2)CCC(=O)N3)c2ccccc2)cc1C` (stereo unspecified): the outcome was inactive.
Same read-out and setting: next, `COc1ccc(NC(=O)C2CCN(S(=O)(=O)c3ccc4c(c3)CCCC(=O)N4)CC2)cc1Cl`: “inactive”.
Take `Cc1oc(C)c2c(=O)cc(-c3ccc4c(c3)OCO4)cc(OC(=O)c3ccccc3Br)c12`: the “activity change, negative = inhibition” value was inactive: -17.4%.
Take `CCOc1cccc(C2c3c(oc4ccc(F)cc4c3=O)C(=O)N2CCc2ccc(OC)cc2)c1` (stereo unspecified): the “activity change, negative = inhibition” value is inactive: 3.22%.
For the compound `COc1ccc(NC(=O)c2nnn(Cc3nc(-c4cc(Br)ccc4OC)oc3C)c2C)cc1`, the outcome was inactive.
With `Cc1ccc(CN(C(=O)Nc2cccc(Cl)c2)c2ccccn2)cc1`, the “activity change, negative = inhibition” value was inactive: -0.058%.
Same read-out and setting: in the case of `CCNC(=O)Cn1c(-c2cccs2)cc2ccccc21` it was inactive: 6.67%.
Turning to `COc1ccc(Nc2cc(C(=O)NC3CCCC3)c3ccccc3n2)c(OC)c1`, the result was inactive.
As for `COc1ccccc1N1CCN(c2csc3ccc(Cl)cc3c2=O)CC1`, the “activity change, negative = inhibition” value was inactive: -3.27%.
In the case of `CCOc1ccccc1NC(=O)Cn1ccn(-c2ccccc2)c(=O)c1=O`, the “activity change, negative = inhibition” value was inactive: -3.96%.
With `CCCCNC(=O)c1cc(Sc2ccc(OCC)cc2)nc2ccccc12`, the compound was classed as inactive.
In the case of `CCn1ccc2cc(S(=O)(=O)N3CCC(C(=O)NCc4cccc(C)c4)CC3)ccc21`, the “activity change, negative = inhibition” value was inactive: -8.73%.
For `Cc1ccc(C)c(Cn2c(=O)n(CCCCC(=O)NCc3ccccc3Cl)c(=O)c3ccccc32)c1`, the result was inactive.
For `CCn1ccc2cc(S(=O)(=O)N3CCCN(C(=O)NCC(C)C)CC3)ccc21`, the outcome was inactive.
Consider `COc1cc(OC)c(NC(=O)c2cc(CN3CCOCC3)on2)cc1Cl`, for which the “activity change, negative = inhibition” value is inactive: 19%.
Consider `COc1ccc(S(=O)(=O)N2CCN(c3ccccc3OC)CC2)cc1-c1noc(C)n1`, for which the “activity change, negative = inhibition” value is inactive: -0.665%.
For `Cc1ccc(-c2nc3ccccc3n3c(-c4ccccc4)c4c(=O)n(C)c(=O)n(C)c4c23)cc1`, the result was inactive.
Same read-out and setting: next, `COc1cc(/C=C(\C#N)c2nc3ccccc3c(=O)[nH]2)cc(OC)c1OC`: “inactive”.
As for `Cc1ccc(Cn2c(-c3ccccc3)nc3ccccc32)cc1`, the “activity change, negative = inhibition” value is inactive: -14.2%.
On to `O=C(CN1C(=O)C2CCCCN2c2ccc(C(=O)N3CCCC3)cc21)NCc1cccc(Cl)c1` (stereo unspecified), for which the “activity change, negative = inhibition” value is inactive: -1.8%.
`Cc1ccc(-c2c(C(=O)Nc3ccc(F)c(F)c3)oc(=O)c3ccccc23)cc1`: the “activity change, negative = inhibition” value was inactive: 1.32%.
Still for that read-out and setting: next, `O=C(NCCSCc1ccc(Cl)cc1)C1CCN(S(=O)(=O)Cc2ccccc2)CC1`: inactive: -8.98%.
For the compound `CCn1cc(C(=O)NCc2ccc(C)cc2)c(=O)c2cc(S(=O)(=O)N3CCC(C)CC3)ccc21`, the result was inactive.
Regarding `CCOc1ccc(CNS(=O)(=O)c2c(C(=O)N3CCCCCC3)c(C)n(C)c2C)cc1OC`, the “activity change, negative = inhibition” value is inactive: -9.44%.
Regarding `O=C(Nc1c(Cl)cncc1Cl)c1ccc(OC(F)F)c(OCC2CC2)c1`, the “activity change, negative = inhibition” value is inactive: 37.5%.
With `Cc1ccc(Cl)c2sc(NC(=O)CS(=O)(=O)c3ccc(Cl)cc3)nc12`, the “activity change, negative = inhibition” value was inactive: 3.91%.
With `CCN(CC)S(=O)(=O)c1ccc2c(c1)c(=O)c(C(=O)NCc1ccccc1)cn2C`, the “activity change, negative = inhibition” value was inactive: 5.14%.
Same read-out and setting: next, `Cc1cccc(N2CCN(C(=O)CSCc3ccc(F)cc3)CC2)c1C`: inactive: 20.5%; `CCCCN(C)C(=O)C1CCCN(c2ncnc3onc(-c4ccc(F)cc4)c23)C1` (stereo unspecified): inactive: 10.5%; `COc1ccc(-c2cn3nc(N4CCC(C(=O)Nc5cccc(Cl)c5)CC4)sc3n2)cc1`: inactive: 7.09%.
On the same count and under the same terms, next, `Cc1ccc(CNC(=O)Cc2coc3cc(C)cc(C)c23)cc1`: inactive: 1.82%; `Cc1ccc(NC(=O)Nc2nnc(N3CCCC3)s2)c(C)c1`: inactive: 13.8%; `CCOc1cccc(CC(=O)Nc2ccc3nc(N4CCCCC4)cc(C)c3c2)c1OCC`: inactive: -15.7%.
Regarding `CC(=O)N1CCCc2cc(S(=O)(=O)N3CCC(C(=O)NCc4ccc(N(C)C)cc4)CC3)ccc21`, the “activity change, negative = inhibition” value is inactive: -2.61%.
Still for that read-out and setting: next, `COc1cc(CN(CC2CCCO2)C(=O)c2ccc(F)cc2)cc(OC)c1OC` (stereo unspecified): inactive: 6.08%; `O=C(NCc1ccccc1)c1ccc(NC(=O)c2nsc3ccccc23)cc1`: inactive: -26.9%.
Still for that read-out and setting: in the case of `COc1ccccc1CNC(=O)c1ccc(CS(=O)(=O)c2ccccc2C)o1` it was inactive: -4.93%; in that of `COc1ccc(CNC(=O)CCC(=O)N2CC3CCCN3c3ccccc32)cc1` (stereo unspecified), inactive: 4.17%.
As for `CCN(C(=O)CN(C)S(=O)(=O)c1ccc2c(c1)c(=O)n(C)c(=O)n2C)c1ccc(OC)cc1`, the compound was classed as inactive.
As for `CC(C)c1nc2ccc(C(=O)NCCCN3CCN(c4ccccc4F)CC3)cc2o1`, the “activity change, negative = inhibition” value was inactive: -12%.
Same read-out and setting: in the case of `COC(=O)c1ccc(-n2nnc(-c3nc(-c4ccc5c(c4)OCO5)no3)c2C)cc1` it was inactive: -4.31%.
On the same count and under the same terms, next, `CC(=O)NCCNc1nc2c(S(=O)(=O)c3ccc(C)c(C)c3)nnn2c2ccc(Cl)cc12`: inactive: 0.792%.
On the same count and under the same terms, next, `Cc1cc(Br)ccc1NC(=O)CCS(=O)(=O)c1cccc2nsnc12`: inactive: 8.42%.
As to `CCOC(=O)c1ccc(NC(=O)C2CCCN(c3ccc(Sc4ccc(C)cc4)nn3)C2)cc1` (stereo unspecified), the “activity change, negative = inhibition” value was inactive: 0.923%.
On the same count and under the same terms, next, `CCC(=O)N1CCc2cc(S(=O)(=O)NCCC(=O)NCc3ccccc3Cl)ccc21`: inactive: -6.66%; `Cc1ccccc1-c1noc(C(C)NC(=O)c2ccco2)n1` (stereo unspecified): inactive: 147%.
Consider `Cn1c(=NC(=O)c2ccc3c(c2)OCCO3)sc2cc(S(C)(=O)=O)ccc21`, for which the compound was called inactive.
Take `COc1ccccc1CNC(=O)C(CC(C)C)NS(=O)(=O)c1ccc2c(c1)oc(=O)n2C` (stereo unspecified): the “activity change, negative = inhibition” value is inactive: 21.5%.
As to `N#Cc1ccc(CN2C(=O)c3ccccc3Sc3ccc(C(=O)OCc4ccco4)cc32)cc1`, the compound was classed as inactive.
Still for that read-out and setting: in the case of `Cc1ccc(C2c3c(oc4ccccc4c3=O)C(=O)N2c2ccc(C)cn2)cc1` (stereo unspecified) it was “inactive”.
